# Experimental data published in the supplement of paper PMC6206098.
# ± gives the uncertainty stated by the source. Shown are siRNA guide strands that differ only in the seed, positions 2 to 7.
# How the values were obtained:
# HeyA8 = experiment: cell viability relative to lipid-only control; higher = less toxic; settings: concentration: 10 nM; 96 h; Homo sapiens
# M565 = experiment: as above; settings: concentration: 10 nM; 96 h; Mus musculus
# H460 = experiment: as above; settings: concentration: 10 nM; 96 h; Homo sapiens
# 3LL = experiment: cell viability relative to siNT1 control; HeyA8 human ovarian and H460 human lung cancer; M565 mouse liver and 3LL mouse lung cancer; siNT1 is a non-toxic control siRNA; higher = less toxic; settings: concentration: 10 nM; 96 h; Mus musculus
# 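For cell viability relative to lipid-only control in this document: reverse lipid transfection in 384-well plates, in triplicate, of duplexes on a non-toxic 19mer backbone with passenger strand 2′-O-methylated at positions 1 and 2, luminescence viability read-out.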
# 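For cell viability relative to siNT1 control in this document: Luminescence-based viability of cells reverse transfected in 384-well plates with lipid-complexed siRNAs built on a non-toxic 19mer backbone whose passenger strand carries 2′-O-methyl groups at positions 1 and 2, triplicates.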
Sequence,cell viability (HeyA8),cell viability (M565),cell viability (H460),cell viability (3LL)
UUUUGGAACAUGUAAACCAAA,80.7 ± 8.2%,92.3 ± 5.7%,74 ± 19%,105 ± 15%
UCUCGCGACAUGUAAACCAAA,84.9 ± 8.8%,73.1 ± 18%,47.8 ± 6.4%,93.1 ± 20%
UUUCAGCACAUGUAAACCAAA,69.8 ± 6.9%,94.7 ± 13%,30.2 ± 4.5%,50 ± 7.1%
UUGCUGGACAUGUAAACCAAA,52.9 ± 9.9%,13.3 ± 2.1%,46.5 ± 8%,14 ± 4.6%
UCUACCUACAUGUAAACCAAA,70.8 ± 6.5%,69 ± 3.2%,49.9 ± 3.4%,99.4 ± 16%
UCUGCUUACAUGUAAACCAAA,94.4 ± 8.2%,87 ± 18%,68.3 ± 4.7%,99.5 ± 10%
UACGGGCACAUGUAAACCAAA,8.06 ± 1.9%,4.37 ± 0.43%,35.4 ± 4.3%,7.83 ± 0.97%
UGCAGUGACAUGUAAACCAAA,25.6 ± 4.3%,65.6 ± 5%,54.8 ± 0.68%,66.8 ± 12%
UGUCUACACAUGUAAACCAAA,50.3 ± 1.4%,46.1 ± 7.4%,40 ± 9%,89 ± 12%
UCCAUCGACAUGUAAACCAAA,79.2 ± 4.2%,74.2 ± 11%,69 ± 3.3%,88.6 ± 24%
UUAUGGUACAUGUAAACCAAA,16.2 ± 1.4%,16.8 ± 2.9%,36.8 ± 3.2%,30.4 ± 2.1%
UUUCUAGACAUGUAAACCAAA,98.9 ± 3.6%,79.1 ± 7.1%,43.6 ± 6.8%,86.3 ± 7.4%
UUACCCUACAUGUAAACCAAA,47.4 ± 5.4%,21.9 ± 5.5%,36.4 ± 2.6%,14 ± 2.5%
UAUUAGCACAUGUAAACCAAA,64.8 ± 4.7%,60.2 ± 9%,64.6 ± 12%,28.2 ± 8.9%
UUAGCAGACAUGUAAACCAAA,83.4 ± 6.5%,28.5 ± 4.4%,71.5 ± 6.6%,46.5 ± 8.7%
UAGCAGUACAUGUAAACCAAA,38.1 ± 2.6%,28.7 ± 3.5%,33.9 ± 2.4%,36.5 ± 2.2%
UAGCUAUACAUGUAAACCAAA,29.2 ± 5.6%,69.3 ± 9.4%,45.4 ± 0.5%,69.6 ± 13%
UGCCUCCACAUGUAAACCAAA,19.4 ± 1%,8.85 ± 5.1%,26.3 ± 0.96%,51.3 ± 10%
UUGUCGAACAUGUAAACCAAA,89.3 ± 2.6%,64.6 ± 18%,62.2 ± 9.2%,74.3 ± 11%
UGAAUUAACAUGUAAACCAAA,92.5 ± 7.5%,73.4 ± 7.8%,61.3 ± 3.3%,105 ± 14%
UUGUAUGACAUGUAAACCAAA,67.6 ± 3%,58.8 ± 13%,78.2 ± 6.1%,64.7 ± 6.6%
UGAACCUACAUGUAAACCAAA,80.9 ± 4.1%,39.1 ± 2.6%,91.3 ± 19%,77.7 ± 9.8%
